# Experimental data taken from paper PMC4336329 (PLoS ONE, 2015).
# In all, about 310,000 compounds went through this assay and about 2,200 (0.71%) showed an effect of 50% or more. Effects have a minus sign here. The list shows a part of the results.
# Target: human ether-à-go-go-related gene (hERG) potassium channel (human, UniProt Q12809)
# Assay: primary screen, population patch clamp on CHO cells stably expressing hERG
# human ether-à-go-go-related gene (hERG) potassium channel, sequence (Q12809 whole entry, looked up): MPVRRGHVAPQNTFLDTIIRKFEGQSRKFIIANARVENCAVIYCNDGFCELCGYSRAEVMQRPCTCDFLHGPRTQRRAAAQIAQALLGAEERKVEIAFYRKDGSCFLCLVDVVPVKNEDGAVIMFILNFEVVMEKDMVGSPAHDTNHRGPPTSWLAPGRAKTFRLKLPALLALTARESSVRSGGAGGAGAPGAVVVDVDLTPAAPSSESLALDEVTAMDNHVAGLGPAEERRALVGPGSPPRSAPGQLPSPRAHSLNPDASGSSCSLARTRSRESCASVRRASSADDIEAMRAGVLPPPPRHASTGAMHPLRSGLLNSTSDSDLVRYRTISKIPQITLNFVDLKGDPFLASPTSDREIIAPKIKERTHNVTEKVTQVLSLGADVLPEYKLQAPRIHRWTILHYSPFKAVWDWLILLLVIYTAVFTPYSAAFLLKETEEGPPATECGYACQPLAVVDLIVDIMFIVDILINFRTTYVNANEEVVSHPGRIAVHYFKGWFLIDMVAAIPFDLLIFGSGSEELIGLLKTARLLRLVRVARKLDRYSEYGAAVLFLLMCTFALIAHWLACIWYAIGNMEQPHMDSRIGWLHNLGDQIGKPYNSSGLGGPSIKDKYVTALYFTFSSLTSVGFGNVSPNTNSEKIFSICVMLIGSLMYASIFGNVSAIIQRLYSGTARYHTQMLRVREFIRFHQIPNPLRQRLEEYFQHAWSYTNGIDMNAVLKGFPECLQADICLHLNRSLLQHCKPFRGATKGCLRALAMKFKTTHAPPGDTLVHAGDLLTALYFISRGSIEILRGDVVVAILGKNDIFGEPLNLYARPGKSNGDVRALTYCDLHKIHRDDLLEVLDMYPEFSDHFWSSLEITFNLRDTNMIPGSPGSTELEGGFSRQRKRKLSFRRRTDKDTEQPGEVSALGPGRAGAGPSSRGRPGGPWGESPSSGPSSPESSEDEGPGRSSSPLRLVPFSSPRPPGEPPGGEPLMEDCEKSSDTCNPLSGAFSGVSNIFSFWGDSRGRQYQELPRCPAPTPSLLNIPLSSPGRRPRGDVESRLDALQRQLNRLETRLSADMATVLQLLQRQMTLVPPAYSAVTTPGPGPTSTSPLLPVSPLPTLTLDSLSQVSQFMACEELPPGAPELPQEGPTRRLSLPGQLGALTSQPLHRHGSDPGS
row,Compound,"hERG current change (%, negative = inhibition) at 1uM [%]"
1,CCOP(=O)(OCC)/C(C#N)=C/c1cc(OC)ccc1OC,15.9
2,O=C(OCc1ccc([N+](=O)[O-])cc1)C1CC(=O)N(Cc2ccccc2Cl)C1 (stereo not drawn),-10.3
3,Cc1ccc(C(C)C)c(OCC(O)CN2CCc3ccccc3C2)c1.Cl (stereo not drawn),-26.4
4,Cc1cccc(-n2ncc3c2CCCC3NC(=O)CCN2Cc3ccccc3C2=O)c1C (stereo not drawn),8.29
5,CCOC(=O)C1CCCN(C(=O)c2ccc(S(=O)(=O)N3CCOCC3)cc2)C1 (stereo not drawn),14.4
6,O=C(Nc1cccc(Oc2ccc3c(c2)C(=O)NC3=O)c1)c1ccco1,8.29
7,CC(C)c1nc2n[nH]c(N)c2c2c1CCC2,14.3
8,CCOC(=O)C1CCN(S(=O)(=O)c2ccc(C)c(C(=O)NC3CCCCC3)c2)CC1,-27.7
9,CN(CC(=O)Nc1ccc(Cl)cc1)C(=O)c1ccc(-n2cncn2)c([N+](=O)[O-])c1,-26.2
10,CCOc1ccc(CN(CCCl)CCCl)cc1C(=O)OC.Cl,16.5
11,O=C(O)c1ccccc1NCCO,18
12,c1ccc(-c2ccc(-c3csnn3)cc2)cc1,14.6
13,O=C1S/C(=C\c2ccc(N3CCOCC3)o2)C(=O)N1c1ccccc1,10.2
14,O=C(NCc1nnnn1-c1ccc(F)c(F)c1)c1ccc(S(=O)(=O)N2CCOCC2)cc1,6.59
15,CCN(CC)S(=O)(=O)c1cc(C(=O)O)ccc1OC,10.8
16,CC(=O)Nc1nc2ccc(Br)cc2s1,0.269
17,COc1cccc(-c2ccc(NC(=O)C3CCCN(Cc4cnc(C)n4C)C3)cc2)c1 (stereo not drawn),-4.85
18,O=C(c1ccc(-n2cncn2)c([N+](=O)[O-])c1)N1CCN(S(=O)(=O)c2c(F)cccc2F)CC1,-14.2
19,COc1cccc2[nH]c3c(Cl)ncnc3c12,11.6
20,COc1ccc(NC(=O)CCC(=O)c2ccc(C(C)C)cc2)cc1,17.5
21,N#Cc1ccccc1Sc1ccccc1C(=O)OCc1nnc(-c2ccccc2)o1,6.43
22,O=C(CCc1nnc(CCCCc2ccccc2)o1)N1CCC(N2CCCC2)CC1,12.1
23,O=C(CSCc1ccc(Cl)cc1)N/N=C/c1ccc(OCC(=O)Nc2ccccc2)cc1,12.6

row,Compound,"hERG current change (%, negative = inhibition) at 1uM [%]"
1,COc1cc2ccccc2cc1C(=O)OCC(=O)c1c(N)n(C)c(=O)n(C)c1=O,-0.545
2,O=C(CN1CCCN(S(=O)(=O)c2ccc(F)cc2)CC1)Nc1c(Cl)cccc1Cl,7.86
3,CCCCn1c(N)c(N(CCOC)C(=O)CCCc2nc3ccccc3s2)c(=O)[nH]c1=O,10.6
4,O=C1C=C(c2cnc3ccccc3c2)C[C@@H](c2ccc3c(c2)OCO3)C1,8.8
5,CC(C)(C)[C@H]1C=C(C(N)=O)O[C@@H](OCCCCO)C1,11.8
6,Cc1cc(C)c2[nH]c(C(=O)Nc3ccc(F)cc3Br)cc2c1,15.2
7,Cc1n[nH]c(C)c1CCN(C)Cc1cn(C)nc1-c1ccccc1F,9.02
8,CCc1ccc(CN(C)C(=O)C2CCC(=O)N(CCCN3CCCC3=O)C2)cc1 (stereo not drawn),-3.86
9,CC1CCCN(c2ccc(C(=O)NCC3CCCO3)cn2)C1 (stereo not drawn),2.56
10,Cc1ccc(S(=O)(=O)N(CC(=O)NCC2CCCO2)c2cccc([N+](=O)[O-])c2)cc1 (stereo not drawn),-12.8
11,Cc1ccc(S(=O)(=O)c2nc(-c3ccccc3)oc2SCC(=O)NCC2CCCO2)cc1 (stereo not drawn),15.8
12,Cc1cc(-c2nnc(CCC(=O)NCc3ccc(OC(F)(F)F)cc3)o2)no1,7.21
13,COc1ccc(-c2cn3c(C)c(C(=O)NCCN4CCOCC4)sc3n2)cc1,-4.48
14,CCCNC(=O)[C@H]1N2C(=O)c3c(ccc(OC)c3OC)C2SC1(C)C (stereo partly drawn),15
15,COC(=O)/C(C#N)=C/c1c[nH]c2ccccc12,-3.57
16,Cc1nnsc1C(=O)N1CCN(c2ccc(F)cc2)CC1,8.55
17,O=C(Nc1ncc2c(n1)-c1ccccc1OC2)c1ccc(Cl)cc1,10.7
18,CCOC(=O)c1cn(CC)c2cc(N3CCOCC3)c(F)cc2c1=O,11.8
19,O=C(c1ccc(-c2ccc(Cl)cc2Cl)o1)N1CCOCC1,-10.5
20,O=C(/C=C/c1ccccc1)NC(=S)Nc1ccccc1O,10.9
21,c1ccc(COc2ccc(OCCn3cncn3)cc2)cc1,4.66
22,COc1ccc(CC(=O)NCCS(=O)(=O)N2CCN(c3ccccc3OC)CC2)cc1,5.75
23,COc1ccc(NC(=O)CCN2C(=O)c3ccccc3S2(=O)=O)cc1,-3.43

row,Compound,"hERG current change (%, negative = inhibition) at 1uM [%]"
1,COc1ccc(S(=O)(=O)N2CCCCCC2)cc1C(=O)OCC(=O)NCC(C)C,0.211
2,Cc1ccc2c(c1)c1c3n2CCCN(Cc2ccccc2)C3CCC1 (stereo not drawn),3.58
3,COc1cccc(OCc2cc(C(=O)N3CCNC(=O)C3Cc3ccccc3)no2)c1 (stereo not drawn),17
4,Cc1cc(N2CCN(S(=O)(=O)c3ccc(Cl)c(Cl)c3)CC2)c2ccccc2n1,4.58
5,O=C(O)CCc1nnc(SCC(=O)Nc2ccc(Br)cc2)[nH]c1=O,12.2
6,CC(=O)N1CCc2c(sc(NC(=O)CN3C(=O)CCC3=O)c2C(N)=O)C1,1.19
7,CCCCNC(=S)NNC(=O)c1nn(C)cc1Cl,16.8
8,COc1ccc(N2CCN(Cc3csc(C)c3-c3ccc(C)cc3)CC2)cc1,14.2
9,CC(C)N1CCC(N2CCN(Cc3ccc(-c4ccc(Cl)cc4)o3)CC2CCO)CC1 (stereo not drawn),-28.2
10,O=C(Nc1cccnc1Cl)c1cc(-c2ccc(Cl)cc2)on1,5.49
11,CC(C)(C)n1cnc2cc(NC(=O)c3cccs3)ccc21,-1.55
12,CCN1C=CC2=C(C#N)C(N)C(C#N)(C#N)C(c3ccccc3C(F)(F)F)C2C1 (stereo not drawn),7.21
13,COc1ccc(C(=O)NCC2CCCO2)cc1 (stereo not drawn),5.73
14,COc1cc(OC)c(C(=O)NCc2ccco2)cc1OC,17.5
15,CC(O)CNCCCCOc1ccc(OCc2ccccc2)cc1 (stereo not drawn),7
16,COc1ccccc1NC(=O)CCCc1c[nH]c2ccccc12,10.7
17,COc1ccc(OCC(=O)Nc2ccc3c(c2)nc(CCn2ccccc2=O)n3C)cc1,8.17
18,Cn1c(=O)c2cc(S(=O)(=O)N3CCN(c4cccc(C(F)(F)F)c4)CC3)ccc2n(C)c1=O,8.01
19,O=S(=O)(c1cccs1)N1CCN(Cc2ccccc2)CC1,-0.662
20,CCC(=O)Nc1nnc(-c2cccs2)s1,12.7
21,COc1cccc(C(=O)NC(=S)Nc2ccc(N3CCCC3)cc2)c1,8.56
22,Cc1csc(NC(=O)CSc2nc3sc(C)c(C)c3c(=O)[nH]2)n1,2.63
23,CCNC(=S)N1CCNC(=O)C1CC(=O)OC (stereo not drawn),1.98

row,Compound,"hERG current change (%, negative = inhibition) at 1uM [%]"
1,Cc1ccc(S(=O)(=O)Nc2cc(C(=O)N3CCC4(CC3)OCCO4)ccc2N2CCCCC2)cc1,-3.7
2,CC1CCN(C(=O)c2nc[nH]c2C(=O)N2CCC(C)CC2)CC1,13.5
3,CCN(CC(=O)Nc1ccccc1C(F)(F)F)C(=O)CCOc1ccccc1C,9.61
4,Cc1cc(C)cc(NS(=O)(=O)c2ccc(Oc3ncc(C(F)(F)F)cc3Cl)cc2)c1,22.3
5,CCc1ccccc1NC(=O)CCN1C(=O)c2ccccc2C1=O,8.59
6,CC(NC(=O)c1ccc([N+](=O)[O-])cc1[N+](=O)[O-])c1ccc(-c2ccccc2)cc1 (stereo not drawn),-0.571
7,c1ccc(N2CCN(c3nc(-c4ccccn4)nc4ccccc34)CC2)cc1,-26.9
8,Cn1c(Nc2ccccc2)nc2ccccc21,8.25
9,O=C1CC(SCc2nc3ccccc3[nH]2)C(=O)N1c1ccc(Cl)cc1 (stereo not drawn),-2.28
10,Cc1ccccc1OCC(O)CN1CCN(C)CC1.Cl (stereo not drawn),5.66
11,Cc1cc2cc(CN(Cc3cccs3)C(=S)NCC3CCCO3)c(=O)[nH]c2cc1C (stereo not drawn),10.7
12,Cc1cccc(C)c1NC(=O)c1ccc(-n2cnnn2)cc1,-16.1
13,Cc1ccccc1NC(=O)c1cccc(S(=O)(=O)Oc2ccc([N+](=O)[O-])cc2)c1,-3.42
14,Fc1ccc(-n2c(-c3cc(C4CC4)[nH]n3)n[nH]c2=S)cc1Cl,10.6
15,CCN(CC)S(=O)(=O)c1ccc(Br)c(OC)c1,6.23
16,CN1CCn2c1nc(N1CCOCC1)nc2=O,4.3
17,CCOC(=O)C(=CNc1ccc(OC)cc1[N+](=O)[O-])C(=O)OCC,14.8
18,N#C/C(=C\c1ccc(O)cc1)C(=O)NCc1cccc(Cl)c1,20.1
19,O=C(N1CCOCC1)N1CCOCC1,-14.1
20,Cc1ccc(OC(=O)c2cccc(S(=O)(=O)N3CCCC3)c2)c(-n2nc3ccccc3n2)c1,5.27
21,C=CCn1c(SCC(=O)Nc2ccc(-c3nc4ccc(C)cc4s3)cc2)nnc1-c1ccccc1,11.8
